{"source": "patent US20230312752A1", "about": "(Brown University, priority 2021, published 2023)", "origin": "cited, not measured here", "conditions": "intravenous or oral route; cited from earlier work", "data": [{"smiles": "C[C@H]1O[C@H](O[C@H]2[C@H](O)[C@@H](O)[C@@H](O)[C@H](O)[C@@H]2O)[C@@H](N)C[C@@H]1NC(=N)C(=O)O", "note": "[Kasugamycin, 2-amino-2-[(2R,3S,5S,6R)-5-amino-2-methyl-6-[(2R,3S,5S,6S)-2,3,4,5,6-pentahydroxycyclohexyl]oxyoxan-3-yl]iminoacetic acid]", "values": [{"measurement": "toxicity in man", "value": "minimal toxicity"}]}]}
